According to the supplement of paper PMC4723716:
± gives the uncertainty stated by the source. The full ranking holds about 9,900 compounds; the median of “viability index relative to DMSO control” is about 1, and the lowest 2% start at about 0.85. This is one part of the list.

System: Plasmodium falciparum NF54 stage V gametocytes
Test: viability index relative to DMSO control (fraction); higher = less gametocyte killing
Details: 2.5 µM, library set: Broad Institute DOS, incubation time: 72 h
Method in brief: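 Viability index is the count of red-stained particles in a well divided by the plate mean of solvent-only wells. Particles of 20–70 µm2 were counted in one imaged field per well after one to two hours with 3 µl of 2.5 µM MitoTracker Red CMXRos and 0.13% saponin. Before staining, P. falciparum NF54 stage V gametocytes in serum-free medium (0.75% gametocytemia, 1.25% hematocrit, 10 µl, 1,536-well plates) were kept with compound at 2.5 µM for 72 hr at 37°C under low oxygen.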

CCCC(=O)Nc1ccc2c(c1)OC[C@H](C)N(S(=O)(=O)c1cn(C)cn1)C[C@H](C)[C@@H](OC)CN(C)C2=O
viability index: 1.11 ± 0.086

CCCN1C[C@H](C)[C@H](OC)CN(C)C(=O)c2cc(NC(=O)Nc3cccc(F)c3)ccc2OC[C@@H]1C
viability index: 1.08 ± 0.033

C[C@@H]1CN([C@@H](C)CO)C(=O)c2cc(NS(=O)(=O)c3cn(C)cn3)ccc2O[C@@H]1CN(C)C(=O)Nc1cccc2ccccc12
viability index: 0.97 ± 0.055

CC(C)[C@H]1COCc2cn(nn2)CCC[C@@H](C)C(=O)N1
viability index: 0.919 ± 0.12

CN1C(=O)c2cc(NS(=O)(=O)c3cccc(F)c3)ccc2OC[C@H]2O[C@@H](CC(=O)N3CCc4ccccc4C3)CC[C@@H]21
viability index: 1.02 ± 0.04

C/C=C/c1ccc([C@@H]2[C@H]3CNC[C@@H]2N3C(=O)NC2CCCCC2)cc1
viability index: 1.044 ± 0.0029

COc1ccc([C@@H]2C/C=C\C[C@H](c3ccc4c(c3)OCO4)NC(=O)CCC(=O)N2)c(OC)c1
viability index: 1.08 ± 0.012

C[C@H](CO)N1C[C@H](C)[C@@H](CN(C)C(=O)NC2CCCC2)OCc2cnnn2CCCC1=O
viability index: 0.992 ± 0.098

COCC(=O)N1C[C@@H]2[C@H](c3ccccc31)[C@H](CO)N2Cc1cc(F)ccc1F
viability index: 1.02 ± 0.14

C[C@@H]1CN([C@@H](C)CO)C(=O)c2cccc(N(C)C)c2O[C@H]1CN(C)C(=O)Nc1ccc(F)cc1
viability index: 0.916 ± 0.068

C[C@@H]1CN([C@H](C)CO)C(=O)Cc2cc(N(C)C)ccc2O[C@@H]1CN(C)C(=O)NC1CCCCC1
viability index: 0.981 ± 0.11

O=C(C[C@@H]1C=C[C@H](NC(=O)c2cnccn2)[C@H](CO)O1)NCc1ccccc1F
viability index: 1.03 ± 0.18

OC[C@@H]1[C@@H](c2ccccc2)C2(CN(Cc3cccnc3)C2)N1Cc1ccncc1
viability index: 1.17 ± 0.018

CN1c2ccc(C#Cc3cccnc3)cc2[C@@H]2[C@@H](CCN2C(=O)c2cccc(F)c2)[C@H]1CO
viability index: 1.05 ± 0.18

O=C(c1cnccn1)N1CC(=O)N2[C@@H](CO)[C@@H](c3ccc(C#CC4CC4)cc3)[C@@H]2C1
viability index: 1.02 ± 0.022

Cc1ccccc1-c1ccccc1[C@H]1[C@@H](C#N)N(C(=O)c2ccc(F)cc2)[C@H]1CO
viability index: 1.11 ± 0.026

CC1C=NC(S(=O)(=O)N2CC[C@@H]3[C@H](CO)N(C)c4ccc(C5=CCCCC5)cc4[C@@H]32)=N1 (some centres undefined)
viability index: 1.06 ± 0.032

COCC#Cc1ccc2c(c1)O[C@H](CN(C)C(=O)C1CCOCC1)[C@H](C)CN([C@@H](C)CO)S2(=O)=O
viability index: 1.016 ± 0.0031

Cn1cnc(S(=O)(=O)N2CCCCN3[C@H](CO)[C@H](c4ccc(C5=CCCCC5)cc4)[C@@H]3C2)c1
viability index: 1.05 ± 0.095

CO[C@H]1CN(C)C(=O)c2cc(NC(=O)Nc3cccc(Cl)c3)ccc2OC[C@@H](C)N(C(=O)Nc2c(C)noc2C)C[C@H]1C
viability index: 1.118 ± 0.011

COC(=O)C[C@@H]1CC[C@@H]2[C@H](COC[C@H](O)CN2S(=O)(=O)c2ccccc2OC)O1
viability index: 1.03 ± 0.083

COc1cccc(NC(=O)N2C[C@@H](O)COC[C@@H]3O[C@H](CC(=O)N(C)C)CC[C@H]32)c1
viability index: 0.976 ± 0.084

C[C@H]1CN([C@@H](C)CO)S(=O)(=O)c2ccc(C#CC(C)(C)O)cc2O[C@@H]1CN(C)Cc1ccc(F)cc1
viability index: 0.9938 ± 0.0061

COc1ccc(S(=O)(=O)N2C[C@H](O)COC[C@H]3O[C@@H](CC(=O)N[C@@H]4CCN(Cc5ccccc5)C4)CC[C@@H]32)cc1
viability index: 1.04 ± 0.016

COc1ccc([C@H]2C/C=C/C[C@@H](C)Oc3ccccc3C(=O)N(C)[C@H](Cc3ccccc3)C(=O)N2)c(OC)c1.COc1ccc([C@H]2C/C=C\C[C@@H](C)Oc3ccccc3C(=O)N(C)[C@H](Cc3ccccc3)C(=O)N2)c(OC)c1
viability index: 0.954 ± 0.074

CCCC#Cc1ccc([C@@H]2[C@@H](C#N)N(C(=O)CN3CCOCC3)[C@H]2CO)cc1
viability index: 1.05 ± 0.011

CCC(=O)N1[C@@H]2c3ccc(-c4ccccc4F)c(=O)n3C[C@H]1[C@H](CO)[C@H]2C(=O)NC1CCC1
viability index: 1.06 ± 0.031

CO[C@@H]1CN(C)C(=O)c2cc(NC(C)=O)ccc2OC[C@H](C)N(C(=O)Cc2ccccn2)C[C@H]1C
viability index: 0.972 ± 0.052

CO[C@@H]1CN(C)C(=O)c2cc(NC(=O)Cc3ccccc3)ccc2OC[C@H](C)N(C(=O)c2ccccc2F)C[C@@H]1C
viability index: 1.065 ± 0.0062

CC(C)c1cn(CC[C@@H]2CC[C@@H](NS(=O)(=O)c3ccc(F)cc3)[C@@H](CO)O2)nn1
viability index: 1.12 ± 0.12

CO[C@H]1CN(C)C(=O)c2cc(NC(=O)Nc3cc(F)ccc3F)ccc2OC[C@@H](C)NC[C@@H]1C
viability index: 1.1 ± 0.025

COc1ccc(NC(=O)N(C)C[C@@H]2Oc3c(NC(=O)CCCCCC(=O)Nc4ccccc4N)cccc3C(=O)N([C@H](C)CO)C[C@H]2C)cc1
viability index: 0.893 ± 0.012

Cn1cnc(S(=O)(=O)N[C@@H]2CC[C@@H](CC(=O)NCC3CCCCC3)O[C@H]2CO)c1
viability index: 1.023 ± 0.0049

CN(C)CC(=O)N1[C@H](C(=O)NC2CCC2)[C@@H](CO)[C@@H]2Cn3c(ccc(-c4cccc(F)c4)c3=O)[C@@H]21
viability index: 1.02 ± 0.031
